Assay results taken from the supplement of paper PMC9446081.
The whole screen tested about 39,000 compounds, of which about 220 (0.56%) showed activity. The list shows a part of the results.

The compounds below were run on Escherichia coli K-12 BW25113 (assay: relative growth (OD600 normalised to plate interquartile mean) (fraction); higher = less growth inhibition, active = 0.2 or less). Details: 50 µM; LB; incubation time: overnight (16-24 h).
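Note: static incubation at 37 °C against the wild-type strain, values averaged over two biological replicates.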

SMILES	relative growth
O=C(N[C@H]1C=C[C@H](CC(=O)N2CCOCC2)O[C@H]1CO)c1ccccn1	inactive: 0.99
COc1ccc(NC(=O)Nc2ccc3c(c2)C(=O)N([C@@H](C)CO)C[C@H](C)[C@H](CN(C)S(=O)(=O)c2cccs2)OCCCC[C@@H](C)O3)cc1	inactive: 1.04
CNC(=O)C(=O)NC[C@H]1CCCN1S(=O)(=O)c1cccs1	inactive: 0.993
Nc1ccc2cc3ccc(N)cc3nc2c1.O=S(=O)(O)O	inactive: 0.477
COc1cc2nc(N3CCN(C(=O)C4COc5ccccc5O4)CC3)nc(N)c2cc1OC.CS(=O)(=O)O (configuration not stated)	inactive: 1.05
C[C@H](CO)N1C[C@H](C)[C@@H](CN(C)S(=O)(=O)c2ccc(F)cc2)Oc2ccc(NS(=O)(=O)c3ccccc3)cc2CC1=O	inactive: 0.972
C[C@@H]1CN([C@@H](C)CO)S(=O)(=O)c2ccc(-c3cncnc3)cc2O[C@@H]1CN(C)C(=O)NC1CCCC1	inactive: 0.985
C[C@H]1CCCCO[C@@H](CN(C)C(=O)Nc2ccccc2)[C@@H](C)CN([C@@H](C)CO)C(=O)c2cc(NC(=O)c3ccncc3)ccc2O1	inactive: 0.968
Cc1cc(O)n(C[C@H]2CCCO2)c(=O)c1C#N	inactive: 1.03
C[C@@H]1CCCCO[C@@H](CN(C)S(=O)(=O)c2ccc(Cl)cc2)[C@H](C)CN([C@H](C)CO)C(=O)c2cc(NS(=O)(=O)c3ccc(F)cc3)ccc2O1	inactive: 1.01
COCC(=O)N1[C@@H]2c3ccc(C4=CCCCC4)c(=O)n3C[C@@H]2[C@@H](CO)[C@@H]1C(=O)N1CCOCC1	inactive: 1.02
COC(=O)C[C@@H]1CC[C@@H]2[C@H](COc3ccc(NS(=O)(=O)c4ccccc4Cl)cc3C(=O)N2C)O1	inactive: 0.958
COc1ccc2c3c([nH]c2c1)[C@H](CO)N(CC1CCCC1)C[C@]13CCN(CC1)C(=O)c1ccc(cc1)F	inactive: 0.977
C[C@@H]1CN([C@H](C)CO)C(=O)c2cc(NC(=O)Nc3ccccc3)ccc2O[C@H]1CN(C)Cc1ccc(-c2ccccc2)cc1	inactive: 1.03
Cc1noc(C)c1NC(=O)Nc1ccc2c(c1)CC(=O)N([C@@H](C)CO)C[C@H](C)[C@H](CN(C)S(=O)(=O)c1cccs1)O2	inactive: 0.981
O=C(O)CCCNC(=O)c1cccnc1	inactive: 0.982
O=C(C[C@@H]1CC[C@H](NC(=O)C2CC2)[C@H](CO)O1)NCCCN1CCOCC1	inactive: 1.02
COc1ccc(NC(=O)Nc2ccc3c(c2)C(=O)N([C@@H](C)CO)C[C@H](C)[C@@H](CN(C)C(=O)NC2CCCCC2)OCCCC[C@H](C)O3)cc1	inactive: 1
C[C@H](CO)N1C[C@H](C)[C@H](CN(C)Cc2ccc(Cl)c(Cl)c2)OCCCC[C@H](C)Oc2ccc(NS(=O)(=O)c3ccc(F)cc3)cc2C1=O	inactive: 1.03
CC(C)N1C[C@H](CNCc2ccc(Oc3ccccc3)cc2)Oc2c(NC(=O)c3ccncc3)cccc2C1=O	inactive: 1.03
Cc1noc(C)c1NC(=O)N(C)C[C@H]1Oc2c(NS(=O)(=O)c3ccccc3)cccc2C(=O)N([C@@H](C)CO)C[C@H]1C	inactive: 0.969

SMILES	relative growth
CO[C@H]1CN(C)C(=O)c2ccc(NC(=O)C3CC3)cc2OC[C@H](C)N(C(=O)Cc2ccccn2)C[C@H]1C	inactive: 0.988
CC(C)NC(=O)N(C)C[C@@H]1OCCCC[C@H](C)Oc2ccc(NC(=O)Nc3ccc(F)cc3)cc2C(=O)N([C@H](C)CO)C[C@@H]1C	inactive: 0.99
O=C(O)Cn1ccccc1=O	inactive: 1.01
C[C@@H]1CCCCO[C@@H](CN(C)C(=O)Nc2ccc(C(F)(F)F)cc2)[C@H](C)CN([C@H](C)CO)C(=O)c2cc(NS(C)(=O)=O)ccc2O1	inactive: 0.939
COc1ccc(NC(=O)N(C)C[C@@H]2OCCCC[C@@H](C)Oc3ccc(NC(=O)NC4CCCCC4)cc3C(=O)N([C@@H](C)CO)C[C@H]2C)cc1	inactive: 1.01
COc1ccc(S(=O)(=O)N(C)C[C@H]2OCCCC[C@H](C)Oc3ccc(NS(C)(=O)=O)cc3C(=O)N([C@@H](C)CO)C[C@@H]2C)cc1	inactive: 1.02
COc1ccc(CC(N)C(=O)NC2C(CO)OC(n3cnc4c(N(C)C)ncnc43)C2O)cc1.Cl.Cl (configuration not stated)	inactive: 0.717
CC(C)(C)[S@@+]([O-])N1Cc2cc(C(=O)NCc3ccc4c(c3)OCO4)nc(-c3ccc(-c4ccc(C#N)cc4)cc3)c2[C@H]1CCO	inactive: 1.03
N#CCNC(=O)CN1C(=O)c2ccccc2C1=O	inactive: 1.02
CC(C)NC(=O)N(C)C[C@H]1Oc2ccc(NC(=O)Nc3ccc4c(c3)OCO4)cc2C(=O)N([C@@H](C)CO)C[C@@H]1C	inactive: 0.989
COc1ccc(CN(C)C[C@H]2Oc3ccc(NS(=O)(=O)c4cn(C)cn4)cc3CC(=O)N([C@H](C)CO)C[C@@H]2C)cc1	inactive: 0.917
Cc1noc(C)c1NC(=O)Nc1ccc2c(c1)C(=O)N([C@@H](C)CO)C[C@@H](C)[C@H](CN(C)S(=O)(=O)c1cn(C)cn1)O2	inactive: 0.976
CNC(=O)C[C@@H]1CC[C@H]2[C@H](COc3ccc(NC(=O)c4ccc(C(F)(F)F)cc4)cc3C(=O)N2C)O1	inactive: 0.987
C[C@@H]1CN([C@H](C)CO)C(=O)c2cccc(NC(=O)Nc3ccc(F)cc3)c2O[C@@H]1CN(C)S(C)(=O)=O	inactive: 0.95
O=c1[nH][nH]c(=S)n1C1CC1	inactive: 0.98
COCC(=O)N(C)C[C@H]1Oc2cc(-c3ccc(OC)cc3)ccc2S(=O)(=O)N([C@@H](C)CO)C[C@@H]1C	inactive: 0.991
COc1cc(O)c2c(=O)c(O)c(-c3ccccc3)oc2c1	inactive: 1.02
COc1ccc(NC(=O)Nc2ccc3c(c2)C(=O)N([C@H](C)CO)C[C@@H](C)[C@H](CN(C)C(=O)Nc2cccc4ccccc24)O3)cc1	inactive: 0.88
COc1ccc(NC(=O)N(C)C[C@@H]2OCCCC[C@H](C)Oc3ccc(NC(=O)C4CCCCC4)cc3C(=O)N([C@@H](C)CO)C[C@@H]2C)cc1	inactive: 0.987
COc1ccc(NC(=O)Nc2ccc3c(c2)C(=O)N([C@H](C)CO)C[C@@H](C)[C@H](CN(C)S(=O)(=O)c2ccc(OC)cc2)OCCCC[C@@H](C)O3)cc1	inactive: 1.06
COc1ccccc1S(=O)(=O)N(C)C[C@H]1OCc2cn(nn2)CCCC(=O)N([C@H](C)CO)C[C@H]1C	inactive: 0.996

SMILES	relative growth
CC(C)N1C[C@H](C)[C@@H](CN(C)Cc2ccc(Cl)c(Cl)c2)Oc2c(cccc2-c2nnc(-c3ccncc3)o2)C1=O	inactive: 0.889
C[C@H]1CN([C@@H](C)CO)S(=O)(=O)c2ccc(-c3cncnc3)cc2O[C@@H]1CN(C)C(=O)Cc1cccnc1	inactive: 1.02
COc1ccc(NC(=O)N(C)C[C@H]2OCCCC[C@H](C)Oc3ccc(NC(=O)Nc4ccc5c(c4)OCO5)cc3C(=O)N([C@@H](C)CO)C[C@H]2C)cc1	inactive: 1
O=C(C[C@@H]1CC[C@@H]2[C@H](COC[C@@H](O)CN2Cc2ccccc2F)O1)N[C@H]1CCN(Cc2ccccc2)C1	inactive: 0.985
CNC[C@H]1Oc2cc(C#CCN(C)C)ccc2S(=O)(=O)N([C@@H](C)CO)C[C@H]1C	inactive: 1.02
Cc1ccc(S(=O)(=O)Nc2ccc3c(c2)C(=O)N([C@H](C)CO)C[C@@H](C)[C@@H](CN(C)Cc2ccc(C(F)(F)F)cc2)O3)cc1	inactive: 1.04
O=C(C[C@H]1CC[C@H]2[C@@H](COC[C@@H](O)CN2C(=O)c2ccc(F)cc2)O1)NCCCN1CCOCC1	inactive: 0.988
NC(=O)C[C@H]1Nc2ccccc2NC1=O	inactive: 0.985
C[C@@H]1CN([C@H](C)CO)C(=O)c2cc(NC(=O)Cc3ccccc3)ccc2O[C@@H](C)CCCCO[C@@H]1CN(C)Cc1ccncc1	inactive: 0.888
C[C@@H]1CN([C@@H](C)CO)C(=O)c2cc(NC(=O)Nc3ccccc3)ccc2O[C@@H](C)CCCCO[C@@H]1CN(C)CC1CCCCC1	inactive: 0.942
C[C@@H]1CN([C@@H](C)CO)C(=O)c2cc(NC(=O)CCCN(C)C)ccc2O[C@H]1CN(C)C(=O)Nc1ccc2c(c1)OCO2	inactive: 0.975
C[C@@H]1CCCCO[C@@H](CN(C)S(=O)(=O)c2cn(C)cn2)[C@H](C)CN([C@@H](C)CO)C(=O)c2cc(NS(=O)(=O)c3ccc(F)cc3)ccc2O1	inactive: 1.01
Oc1ccc(Oc2ccccc2)cc1	inactive: 0.93
O=C1O[C@@H](c2ccccc2)[C@@H](c2ccccc2)N2[C@@H](c3ccc(O)cc3)[C@]3(C(=O)Nc4ccccc43)[C@@H](C(=O)NC[C@H](O)c3ccccc3)[C@H]12	inactive: 1.01
O=C(CCCCCNC(=O)OCc1ccc(CO[C@H]2C[C@@H](c3csc4ccccc34)C=C(C(=O)N3CCN(Cc4ccc5c(c4)OCO5)CC3)O2)cc1)NO	inactive: 0.995
C[C@H]1CCCCO[C@H](CN(C)S(=O)(=O)c2cn(C)cn2)[C@@H](C)CN([C@@H](C)CO)C(=O)c2cc(NC(=O)Nc3ccc(C(F)(F)F)cc3)ccc2O1	inactive: 0.96
CC(C)NC(=O)N(C)C[C@@H]1Oc2ccc(NC(=O)Cn3cnnn3)cc2CC(=O)N([C@@H](C)CO)C[C@H]1C	inactive: 1
O=C(O)Cc1ccc(O)c(O)c1	inactive: 1
C[C@@H]1CN([C@@H](C)CO)S(=O)(=O)c2ccc(-c3cncnc3)cc2O[C@@H]1CN(C)C(=O)Cc1ccccc1	inactive: 0.985
Cc1cc(C(=O)Nc2cccc3c2O[C@@H](CN(C)C(=O)NC(C)C)[C@H](C)CN([C@@H](C)CO)C3=O)n(C)n1	inactive: 0.995
